Assay results as given in patent publication US20160367664A1 (AGENCY FOR SCIENCE TECHNOLOGY AND RESEARCH, published 2016).

Target: T1, recombinant human interleukin 2 receptor β (IL-2Rβ; CD122) (human, UniProt P14784 27-240)
T1 construct: Recombinant chain immobilised on the SPR chip and used as antigen in the ELISAs; also called human IL-2Rβ
T1 sequence (looked up): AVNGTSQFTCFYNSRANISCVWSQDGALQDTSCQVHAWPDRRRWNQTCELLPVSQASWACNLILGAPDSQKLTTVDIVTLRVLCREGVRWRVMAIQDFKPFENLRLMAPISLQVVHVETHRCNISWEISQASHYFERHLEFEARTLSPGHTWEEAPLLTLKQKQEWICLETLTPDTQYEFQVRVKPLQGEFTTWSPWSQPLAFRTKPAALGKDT
Assay: ELISA, biotinylated IL-2Rβ titrated on the bispecific antibody; the concentration is that of IL-2Rβ

EC50 (read off the curve): ~50 nM
B1: bispecific antibody clone P2C4/P1A3 with the GGGGSAAA short linker (bispecific antibody)
chain 1: EVQLVQSGAEVKKPGSSVKVSCKASGYTFTNYYMHWVRQAPGQGLEWMGAIMPSRGGTSYPQKFQGRVTMTGDTSTSTVYMELSSLRSEDTAVYYCARGEYYYDSSGYYYWGQGTLVTVSSGGGGSGGGGSGGGGSQSALTQPASVSGSPGQSIAISCTGTSSDIGHYDFVSWYQQHPGTAPKLIIYDINNRPSGISNRFSGSKSDNMASLTISGLQPEDEADYYCSAYTSSDTLVFGGGTKLTVLGGGGSA[not shown - human IgG1 Fc with changes and a few adjoining residues]
chain 2: QVQLQQWGAGLLKPSETLSLTCAVYGGSFSGYYWSWIRQPPGKGLEWIGEINHSGSTNYNPSLKSRATISVDTSKNQFSLKLSSVTAADTAVYYCATSPGGYSGGYFQHWGQGTLVTVSSGGGGSGGGGSGGGGS[not shown - about 100 residues]YCMQGTHWPWTFGQGTKVEIKGGGGSAAATHTCPPCPAPEAAGGPSVFLFPPKPKDTLMISRTPEVTCVVVDVSHEDPEVKFNWYVDGVEVHNAKTKPREEQYNSTYRVVSVLTVLHQDWLNGKEYKCKVSNKALPAPIEKTISKAKGQPREPQVCTLPPSRDELTKNQVSLSCAVKGFYPSDIAVEWESNGQPENNYKTTPPVLDSDGSFFLVSKLTVDKSRWQQGNVFSCSVMHEALHNHYTQKSLSLSPGK
